Experimental data taken from PMC5836133.
The other results are listed elsewhere or left out. At the low end of the ranking the order means little.
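Note: rank-based score ranging −0.5 to +0.5 with E above 0.45 taken as significant binding.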

Each sequence was assayed on T1, GST-NbGlk1(82-244) (assay: protein-binding microarray). Settings: NbGlk1 is a Golden2-like transcription factor of Nicotiana benthamiana; high values mean tight binding; most listed sequences are background and not binding sites; double strand, one strand shown.
T1 sequence: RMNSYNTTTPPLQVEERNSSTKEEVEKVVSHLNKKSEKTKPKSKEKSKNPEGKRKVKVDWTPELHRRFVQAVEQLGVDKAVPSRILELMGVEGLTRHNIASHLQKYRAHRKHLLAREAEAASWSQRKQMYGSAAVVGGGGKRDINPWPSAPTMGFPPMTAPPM
With AGAAACTA the binding signal was 0.0805 E-score.
ATTACTCA was tested, and the binding signal was 0.208 E-score.
Work on ACACCGAC yielded a binding signal of -0.218 E-score.
ATGAGGCC was tested, and the binding signal was -0.207 E-score.
Work on ACACATCC yielded a binding signal of -0.0375 E-score.
For AGCGAAGA, the binding signal was -0.0249 E-score.
Sequence CACGCTAC has a binding signal of 0.00212 E-score.
ATTATGCC gave a binding signal of 0.117 E-score.
Work on ACAGATAC yielded a binding signal of 0.276 E-score.
In the case of ATGACACA, the binding signal is reported as 0.0337 E-score.
In the case of AACCGACT, the binding signal is reported as -0.117 E-score.
In the case of AACTCAGA, the binding signal is reported as 0.0536 E-score.
ACTCATTG showed a binding signal of 0.0113 E-score.
Sequence AACAACGC has a binding signal of -0.0594 E-score.
ATGGTGTA was tested, and the binding signal was 0.0435 E-score.
AAAAACTC showed a binding signal of 0.0348 E-score.
For ACATCGGT, the binding signal was -0.128 E-score.
AGTCTTTC was tested, and the binding signal was -0.0646 E-score.
AAATGTTA was tested, and the binding signal was 0.101 E-score.
ATCTTGTC showed a binding signal of 0.31 E-score.
ATTTTAGA was tested, and the binding signal was 0.221 E-score.
AAAGTTCT showed a binding signal of 0.0429 E-score.
ACGATGTG showed a binding signal of -0.0692 E-score.
With ACGCAAAG the binding signal was -0.119 E-score.
Sequence AAGAGCCA has a binding signal of -0.086 E-score.
ATTCCATG gave a binding signal of 0.229 E-score.
Work on ACGCCAGG yielded a binding signal of -0.267 E-score.
ACGGTCAG gave a binding signal of -0.174 E-score.
For ATTTAGAC, the binding signal was 0.144 E-score.
AGATCGCG showed a binding signal of 0.464 E-score.
CAAGTTCA showed a binding signal of 0.0808 E-score.
AAGTCAGG was tested, and the binding signal was -0.0361 E-score.
Sequence AGTGATAT has a binding signal of 0.298 E-score.
ACACGTGG gave a binding signal of -0.0907 E-score.
AATAGCCT was tested, and the binding signal was -0.133 E-score.
Sequence AAGTGCAG has a binding signal of -0.141 E-score.
Work on ATAAGGGA yielded a binding signal of -0.0325 E-score.
ACGGCTAT was tested, and the binding signal was -0.0409 E-score.
In the case of AGGGTAGC, the binding signal is reported as -0.278 E-score.
Work on AACTTGCT yielded a binding signal of -0.0985 E-score.
ATGGAGCC was tested, and the binding signal was -0.333 E-score.
For AGTAGCCA, the binding signal was -0.217 E-score.
AAAGAAGC was tested, and the binding signal was -0.128 E-score.
For CAACATGA, the binding signal was 0.0303 E-score.
Sequence AGCTGCGA has a binding signal of -0.121 E-score.
Work on ATATAATC yielded a binding signal of 0.297 E-score.
In the case of ACCGTGCA, the binding signal is reported as -0.0141 E-score.
With AGAAAGCA the binding signal was -0.109 E-score.
Sequence AACCCATG has a binding signal of -0.207 E-score.
Work on ACGCTGTC yielded a binding signal of -0.229 E-score.
ACCATACG gave a binding signal of -0.0596 E-score.
ACATCCTA showed a binding signal of -0.0295 E-score.
AACACAGT gave a binding signal of -0.124 E-score.
CAGCCTGG showed a binding signal of -0.129 E-score.
AATACGTG gave a binding signal of 0.216 E-score.
In the case of AGCTAAAA, the binding signal is reported as -0.0774 E-score.
For AGTCGATG, the binding signal was -0.0548 E-score.
With ATAGACAC the binding signal was 0.012 E-score.
With ACCGCCCG the binding signal was -0.0529 E-score.
Work on ATCGATCG yielded a binding signal of 0.128 E-score.
AGTTTAAA gave a binding signal of 0.0899 E-score.
Sequence AGACAAAG has a binding signal of -0.161 E-score.
Work on AATCATGC yielded a binding signal of 0.05 E-score.
ATCTCACG gave a binding signal of 0.2 E-score.
ACACGCGT showed a binding signal of -0.0669 E-score.
ACTTTACT gave a binding signal of 0.0151 E-score.
Sequence AGCGTGCG has a binding signal of -0.132 E-score.
Work on AAAGCTCC yielded a binding signal of -0.263 E-score.
Work on AGTTATTG yielded a binding signal of -0.0139 E-score.
In the case of ATAACAGC, the binding signal is reported as -0.0595 E-score.
Work on AACCCTGA yielded a binding signal of -0.000472 E-score.
With CACAACTC the binding signal was -0.0401 E-score.
ATGTAGGC gave a binding signal of -0.121 E-score.
In the case of ACATTCCG, the binding signal is reported as 0.0221 E-score.
In the case of ATAACCCA, the binding signal is reported as -0.0342 E-score.
For AATACGCG, the binding signal was 0.149 E-score.
AGTATTAT showed a binding signal of 0.133 E-score.
ACCGTCCT gave a binding signal of -0.161 E-score.
Sequence AAAAGTAC has a binding signal of -0.13 E-score.
With ACACGAAC the binding signal was -0.187 E-score.
AAAGAGTG showed a binding signal of -0.11 E-score.
With AGCACACT the binding signal was -0.199 E-score.
With ACCTTTAA the binding signal was 0.176 E-score.
For ATGTACGC, the binding signal was -0.0632 E-score.
In the case of ATCGTTAA, the binding signal is reported as 0.178 E-score.
AGCCGGTG gave a binding signal of -0.245 E-score.
For ATCTCTCC, the binding signal was 0.197 E-score.
ACGGGGAT gave a binding signal of 0.214 E-score.
With ATCCACCG the binding signal was 0.125 E-score.
With AGCCCAGC the binding signal was -0.379 E-score.
For CAAGGTTA, the binding signal was -0.12 E-score.
In the case of AGGTTTCC, the binding signal is reported as -0.207 E-score.
For ACTCCGCT, the binding signal was -0.229 E-score.
ACAGAGTA was tested, and the binding signal was 0.1 E-score.
Work on CAACTGAA yielded a binding signal of -0.0297 E-score.
With ATGACCCC the binding signal was -0.268 E-score.
AACTATTG gave a binding signal of 0.13 E-score.
ACCGCAGG was tested, and the binding signal was -0.193 E-score.
CAAATGCC showed a binding signal of -0.0934 E-score.
AATCGTAC showed a binding signal of 0.257 E-score.
AGACTGAG was tested, and the binding signal was -0.082 E-score.
ATCGGCCC was tested, and the binding signal was 0.0915 E-score.
AAACCTGG gave a binding signal of -0.206 E-score.
Work on ATCTAACC yielded a binding signal of 0.266 E-score.
With ACCAGGGT the binding signal was -0.322 E-score.
In the case of AGCAGTAA, the binding signal is reported as -0.049 E-score.
CAATCCTG showed a binding signal of 0.328 E-score.
AAGGTTCT showed a binding signal of -0.176 E-score.
Sequence CAACATCG has a binding signal of 0.0129 E-score.
Work on CACCAAAC yielded a binding signal of -0.0638 E-score.
CACACTCC showed a binding signal of -0.0563 E-score.
ACACTACT was tested, and the binding signal was -0.062 E-score.
AATATCAG gave a binding signal of 0.332 E-score.
ACGATCTC gave a binding signal of 0.295 E-score.
In the case of ACACACTC, the binding signal is reported as -0.063 E-score.
AGGATTAA gave a binding signal of -0.117 E-score.
ATGTGGTC gave a binding signal of -0.0694 E-score.
Sequence CACATCGG has a binding signal of -0.137 E-score.
ATGGATCG showed a binding signal of 0.0554 E-score.
Work on CACGATGC yielded a binding signal of -0.0964 E-score.
For AGCCTCAG, the binding signal was -0.199 E-score.
For ACTCAGTC, the binding signal was -0.137 E-score.
AAATGTAC showed a binding signal of -0.164 E-score.
ACTAGCGG gave a binding signal of -0.0505 E-score.
Work on CACACGAC yielded a binding signal of -0.201 E-score.
ACACTTAG showed a binding signal of -0.0695 E-score.
Sequence ACTTAGAA has a binding signal of 0.0395 E-score.
AGTACGCA gave a binding signal of -0.0533 E-score.
Work on CACCTATC yielded a binding signal of -0.0782 E-score.
In the case of AGGACATG, the binding signal is reported as -0.244 E-score.
For AATTCGTA, the binding signal was 0.223 E-score.
AGATTGTC was tested, and the binding signal was 0.394 E-score.
With AAATTCGC the binding signal was 0.284 E-score.
For AGGAGCCC, the binding signal was -0.373 E-score.
ACAGCCAC gave a binding signal of -0.228 E-score.
AAGTAGGC was tested, and the binding signal was -0.0687 E-score.
ACATTCGT was tested, and the binding signal was -0.16 E-score.
Work on ACGGTACA yielded a binding signal of -0.044 E-score.
Work on AGACTGTG yielded a binding signal of -0.0371 E-score.
For AGGGACGC, the binding signal was -0.271 E-score.
Work on ACGTGGTA yielded a binding signal of 0.00208 E-score.
AAAACGCG was tested, and the binding signal was 0.129 E-score.
Work on ACGTGTAA yielded a binding signal of 0.0997 E-score.
For AACGTGAG, the binding signal was 0.029 E-score.
ACAGAACA was tested, and the binding signal was -0.0977 E-score.
ACTTCGCC was tested, and the binding signal was -0.148 E-score.
Sequence AGCGGGCG has a binding signal of -0.202 E-score.
AGGCTAAG gave a binding signal of -0.0896 E-score.
For ATTCCTAA, the binding signal was 0.236 E-score.
AAACGTCG was tested, and the binding signal was 0.0499 E-score.
Work on CAAGTCTC yielded a binding signal of -0.194 E-score.
Sequence ATGGCTCG has a binding signal of -0.104 E-score.
ATAATTAG gave a binding signal of 0.0782 E-score.
Sequence ACGGTTCG has a binding signal of -0.0875 E-score.
CAACAAAG gave a binding signal of 0.0518 E-score.
In the case of ATTCCTTC, the binding signal is reported as 0.136 E-score.
In the case of ATCATACG, the binding signal is reported as 0.138 E-score.
ATAGGGAC showed a binding signal of -0.127 E-score.
In the case of AGCGGCGA, the binding signal is reported as -0.0164 E-score.
AATCGCCA gave a binding signal of 0.259 E-score.
CAAGTGCC gave a binding signal of -0.119 E-score.
For ACCACGCT, the binding signal was -0.125 E-score.
For ATCACATG, the binding signal was 0.196 E-score.
ATATTCAG was tested, and the binding signal was 0.277 E-score.
For AATCAGAT, the binding signal was 0.341 E-score.
Work on CAATCAAG yielded a binding signal of 0.207 E-score.
ACACCTAA gave a binding signal of -0.0253 E-score.
With ATGCACAA the binding signal was -0.0196 E-score.
With ACCGCTTA the binding signal was -0.172 E-score.
AAGAGGGT showed a binding signal of -0.235 E-score.
Sequence ACACGTCC has a binding signal of -0.211 E-score.
ATTACCTG gave a binding signal of 0.213 E-score.
